Experimental findings from PubChem BioAssay AID463173 (ICCB-Longwood Screening Facility, Harvard Medical School, 2010) are described below.

About 4,300 (8.3%) of roughly 52,000 compounds were called active. Rule as the data show it: active = survival mostly below about 52% (no sharp cut-off); inactive = mostly above about 56%. Some of the results follow.

This test relates to DeltatarO mutant. The test can be described thus: S. aureus survival, RN4220 and DeltatarO strains – OD600, teichoic acid synthesis inhibitors, primary screen (AID 463173). The settings on record: S. aureus RN4220 wild type/DeltatarO growth, OD600, 18 h, stronger effect = lower value, screened at 18.75 µg/mL (by protocol).
`COc1ccc(Nc2ncnc3c2nc2n3CCCCC2)cc1`: the survival was inactive: 89%.
Under `N#Cc1c(/N=C/N2CCCCC2)sc2c1CCCC2` stands inactive: 80%; under `CCCOc1ccc(CNC(=O)c2[nH]c3cc(OC)ccc3c2Sc2ccccc2)cc1`, inactive: 83%.
`CCN1CCN(C(=S)NC)CC1`: the survival is inactive: 79%.
Under `CC(C)c1ccc(-c2noc(C3CCCN(S(=O)(=O)c4ccccc4)C3)n2)cc1` (stereo not drawn) stands inactive: 80%.
Then `COc1cccc(-c2nnn(CCc3nn[nH]n3)n2)c1`, with inactive: 84%; and `COC(=O)c1ccc(NC(=O)CSC2=NCCS2)cc1`, with inactive: 89%; and `COc1ccc(C)cc1NC(=O)Nc1cccc(-c2noc(C)n2)c1`, with inactive: 124%.
Under `CCc1ccc(NC(=O)Cn2c(=O)n(CCC(=O)NCCc3ccc(Cl)cc3)c(=O)c3ccccc32)cc1` stands inactive: 73%.
For the compound `O=C(NC1CC1)C1C2C=CC3(O2)C1C(=O)N(C1CC1)C3C(=O)NC1CCCCC1` (stereo not drawn), the survival is inactive: 88%.
Under `Cc1noc(/C=C/c2ccccc2F)c1S(=O)(=O)N1CCC(C(=O)N2CCOc3ccccc32)CC1` stands inactive: 91%; under `COc1ccc(C(=O)Nc2nc(-c3nnn(-c4ccc(C(C)C)cc4)c3C)ns2)cc1`, inactive: 108%.
For the compound `COc1ccccc1CCNC(=O)C(C)Sc1nc(-c2ccccc2)cc(C(F)(F)F)n1` (stereo not drawn), the survival is inactive: 65%.
Under `CC(=NCCCn1ccnc1)c1c(C(F)(F)F)[nH]n(-c2nc3ccccc3s2)c1=O` stands inactive: 120%.
As to `CCOC(=O)C(Cc1c[nH]c2ccccc12)NC(=O)COc1ccc(CC)cc1` (stereo not drawn), the survival is active: 33%.
Then `Cc1cc(NC(=O)CN2CCC(C)CC2)nc2c1c(=O)oc1ccccc12`, with inactive: 102%; and `CCOC(=O)c1c(C)[nH]c(C)c1S(=O)(=O)N1CCC(C(=O)NCc2ccccc2Cl)CC1`, with inactive: 109%.
On to `COc1ccc(C)cc1N(C)C(=O)CCc1nc(-c2ccccc2F)no1`, for which the survival is inactive: 45%.
Under `CCCCNc1oc(-c2ccc(COc3ccc(OC)cc3)o2)nc1C#N` stands inactive: 68%; under `Cc1ccc(Cl)cc1NC(=O)CN1C(=O)CCc2ccccc21`, inactive: 99%.
Then `CCOC(=O)c1cc2oc(C)cc2n1CCCN1C(=O)c2ccccc2C1=O`, with active: 0%.
Then `CC(C)NC(=O)CN1C(=O)C(C)(C)Oc2ccc(C(=O)NC(C)C)cc21`, with inactive: 109%.
Consider `COC(=O)c1ccccc1NC(=O)CCCn1c(=O)c2cccn2c2cccnc21`, for which the survival was inactive: 92%.
Then `CCc1nc(NCCCO)c2nnn(Cc3ccccc3F)c2n1`, with inactive: 77%.
In the case of `CN(C)c1ccc(Nc2ncnc3sc4c(c23)CCCC4)cc1`, the survival was inactive: 106%.
Consider `CC(=O)Nc1ccc(N(C(=O)Cn2nnc3ccccc32)C(C(=O)NCc2ccccc2)c2ccc(C)cc2)cc1` (stereo not drawn), for which the survival was active: 38%.
Then `COc1ccc(CCNC(=O)c2c(C)oc3ncn(C)c(=O)c23)c(OC)c1`, with inactive: 84%; and `O=C1C(c2ccc(F)cc2)N(CCc2ccccc2)C(=O)CN1C1CCCCCC1` (stereo not drawn), with inactive: 70%; and `Cc1ccc2[nH]c(=O)c3cc(C(=O)NCCCN4CCC(C)CC4)sc3c2c1`, with inactive: 85%.
Then `CCN(C(=O)CSc1nc2ccccc2n1Cc1ccc(F)cc1Cl)c1ccccc1`, with inactive: 77%.
Under `CCOc1cccc(C(=O)Nc2nc3c(s2)CC(C(C)(C)C)CC3)c1` (stereo not drawn) stands inactive: 77%; under `COc1ccc(N(CC(=O)N2CCN(c3ccc(F)cc3)CC2)S(=O)(=O)c2c(C)noc2C)cc1`, inactive: 67%; under `CC(C)(C)c1cc(C(F)(F)F)nc(SCCCNC(=O)c2ccco2)n1`, inactive: 76%.
Turning to `CCCCN1C(=O)C(O)(CC(=O)c2ccc(C)cc2C)c2cc(Br)ccc21` (stereo not drawn), the survival is active: 11%.
Then `O=C(NCc1ccco1)c1ccc2c(c1)N(Cc1ccc(F)cc1)C(=O)c1ccccc1S2(=O)=O`, with inactive: 105%; and `CC(C)COc1ccc(C(=O)Nc2cc(-c3ccccc3)no2)cc1`, with inactive: 85%; and `O=C(Cn1cnc2ccccc2c1=O)NCCC(=O)Nc1ccc(F)cc1`, with inactive: 85%.
For the compound `CCc1cccc2c(C#N)cn(CCOc3ccccc3OC)c12`, the survival was inactive: 80%.
Under `CCCCN(CC)CCCNC(=O)Cn1ncc2c([nH]c3ccc(C)cc32)c1=O` stands inactive: 89%; under `Cc1c(C(=O)N2CCOCC2)oc2c1-c1nn(CC(=O)NCc3cccc(Cl)c3)cc1CC2`, inactive: 70%; under `CCCCS(=O)(=O)c1oc(-c2ccc(F)cc2)nc1S(=O)(=O)c1ccc(C)cc1`, active: 30%.
Then `Cn1c(=O)oc2cc(S(=O)(=O)N3CCC(C(=O)N4CCN(c5ccccc5F)CC4)CC3)ccc21`, with inactive: 80%; and `COc1cc(Cl)c(C)cc1NC(=O)CC(c1ccc(F)cc1)N1Cc2ccccc2C1=O` (stereo not drawn), with active: 0%.
In the case of `CC(C)(C)OC(=O)N1CCC(c2c(C(=O)NCCc3ccccc3)cnn2-c2ccc(F)cc2F)CC1`, the survival is inactive: 79%.
Consider `COc1ccc(-c2c(C)c3ccc(O)c(CN4CCN(CCO)CC4)c3oc2=O)cc1OC`, for which the survival is inactive: 68%.
Under `O=C(NCc1cccc(F)c1)c1ccc(NC(=O)c2nsc3ccccc23)cc1` stands active: -2%; under `COc1cccc(CNC(=O)c2cc(Sc3cccc(Cl)c3)nc3ccccc23)c1`, inactive: 74%; under `Cc1ccc(/C=C/C(=O)Nc2ccccc2C(N)=O)o1`, inactive: 64%.
In the case of `COc1cc(OC)cc(-c2nc3n(n2)C(c2ccccc2)C(C(N)=O)=C(C)N3)c1` (stereo not drawn), the survival was inactive: 78%.
Under `COc1ccccc1NC(=O)COc1ccc(-c2nn(C)c(=O)c3ccccc23)cc1` stands active: 37%.
Then `CCOc1ccc(CNC(=O)Cn2nc(C)c3c(C)n(-c4ccc(C)cc4)nc3c2=O)cc1`, with inactive: 93%.
Under `CC(C)C(=O)Nc1nc2c(s1)CC(C(C)(C)C)CC2` (stereo not drawn) stands inactive: 92%.
As to `CC1=C(C)CC(C(=O)Nc2ccc(NC(=O)NC3CCCCC3)cc2)C(C(=O)O)C1` (stereo not drawn), the survival is inactive: 81%.
Turning to `O=C(CCS(=O)(=O)c1ccccc1)N(Cc1cccnc1)c1nc2ccc(F)cc2s1`, the survival is inactive: 102%.
Then `CC(=O)c1ccc(-n2c(CCC(=O)O)ccc2-c2cccs2)cc1`, with inactive: 65%; and `COc1ccc(-c2cnc(C)o2)cc1S(=O)(=O)Nc1ccc(OC(F)(F)F)cc1`, with inactive: 74%; and `Cc1ccc(C)c(CSc2nnc(C)n3c2cc2sccc23)c1`, with inactive: 80%.
Under `C#CCn1c(=O)n(-c2cccc(Cl)c2C)c(=O)c2c3c(sc21)CN(C(C)=O)CC3` stands inactive: 73%.
Under `Cc1ccc(C)c(N2CCN(CCCNC(=O)c3cnn(-c4ccc(F)cc4)c3C3CCN(C(=O)OC(C)(C)C)CC3)CC2)c1` stands inactive: 76%; under `CC(C)Oc1ccccc1NC(=O)CSc1nccn1C`, inactive: 60%.
In the case of `OCCCn1c(-c2ccc(F)cc2)csc1=Nc1ccc(F)cc1`, the survival was active: 39%.
Turning to `Cc1ccc(-n2c(=O)c3c(c4cc(C)ccc4n3C)n(CC(=O)c3ccc(Cl)cc3)c2=O)cc1`, the survival was inactive: 116%.
Take `O=C(O)CSc1nc2ccc(NC(=O)COc3ccc(Cl)cc3)cc2s1`: the survival is inactive: 83%.
For `O=C(Cn1c(=O)nc(-c2ccccc2)c2ccccc21)N1CCN(c2ccc(F)cc2)CC1`, the survival is inactive: 78%.
For the compound `COc1cc(OC)c(NC2=C(c3ccc(C(F)(F)F)cc3)C(=O)c3ccccc32)cc1Cl`, the survival is inactive: 56%.
For the compound `O=C(CS(=O)(=O)c1cccc2nsnc12)NCc1ccccc1`, the survival is inactive: 72%.
Under `Cc1noc(/C=C/c2ccccc2F)c1S(=O)(=O)N1CCC(C(=O)NCC(C)c2ccccc2)CC1` (stereo not drawn) stands inactive: 95%; under `COc1cc(NC(=O)C(Cc2ccccc2)NS(=O)(=O)c2cccs2)cc(OC)c1` (stereo not drawn), inactive: 102%.
Under `CCOC(=O)c1c(NC(=O)c2cc(=O)c3cc(C)cc(C)c3o2)sc(C)c1C` stands active: 48%; under `Cc1ccc(-c2nn(CC(=O)NCc3ccccc3)c3c2cnc2ccc(F)cc23)cc1C`, inactive: 75%; under `O=C(CSc1nccn1C1CCCC1)Nc1cc(C(F)(F)F)ccc1Cl`, inactive: 78%.
With `COc1ccc(OC)c(-n2c3c(cc(-c4nc(-c5ccc(Cl)cc5)cs4)c2=O)C(=O)CC(C)(C)C3)c1`, the survival is inactive: 75%.
For `O=C(c1ccc2c(c1)N(Cc1ccccc1)C(=O)c1ccccc1S2(=O)=O)N1CCc2ccccc21`, the survival was inactive: 81%.
Then `Cc1c(NC(=O)C(C)(C)Oc2ccc(Cl)cc2)cccc1-c1nc2ccccc2o1`, with active: 2%; and `Cc1ccc(NC(=O)c2ccc(CN3CC(=O)N4CCCCC4C3=O)cc2)c(C)c1` (stereo not drawn), with inactive: 77%; and `Cc1ccc2c(=O)c(C(=O)c3ccc(F)cc3)cn(CC(=O)Nc3ccc4c(c3)OCCO4)c2n1`, with inactive: 77%.
Under `COC(=O)c1ccccc1NC(=O)c1nc(-c2ccc(Cl)cc2)n2c1CCCCC2` stands inactive: 113%; under `CCOc1cccc(C(=O)Nc2cc(C)c(O)c(-c3nc4ncccc4o3)c2)c1`, inactive: 64%.
`COc1cccc(Cc2nc3ccccc3nc2SCC(=O)N2CCCc3ccccc32)c1`: the survival was inactive: 131%.
Under `CC(=O)c1cccc(NS(=O)(=O)c2cc3c(cc2C)n(C)c(=O)c(=O)n3C)c1` stands inactive: 83%.
As to `CC1CCCN(CC(=O)Nc2ccc(C(=O)O)cc2)C1` (stereo not drawn), the survival is inactive: 89%.
`Cc1nc(Nc2ccc(S(N)(=O)=O)cc2)oc1C`: the survival was inactive: 75%.
As to `Cc1cccc(NC(=O)C(=O)NCC(c2ccc3c(c2)OCO3)N2CCN(c3ccccc3)CC2)c1` (stereo not drawn), the survival was inactive: 99%.
Then `O=C(Nc1sc2c(c1C(=O)Nc1ccccc1)CCC2)c1ccc(Br)cc1`, with inactive: 159%; and `Cc1cc(F)ccc1S(=O)(=O)Nc1ccc(O)c(Sc2ncn[nH]2)c1`, with inactive: 111%.
With `COc1ccccc1CNC(=O)CSc1ccc(-c2sc(-c3ccccc3)nc2C)nn1`, the survival was inactive: 27%.
In the case of `CN(C(=O)CSc1nnc(COc2ccccc2)o1)c1ccccc1`, the survival is inactive: 97%.
Then `O=S(=O)(c1ccc(Cl)cc1)c1nc(-c2ccco2)oc1SCc1ccccc1F`, with inactive: 62%.
